We go through 1 substance from PMC3688683, “The N-Terminal Domains of Vps3 and Vps8 Are Critical for Localization and Function of the CORVET Tethering Complex on Endosomes” (PLoS ONE, 2013).

Chains of the proteins cited; added tags and fusions are not shown.
UniProt P12868: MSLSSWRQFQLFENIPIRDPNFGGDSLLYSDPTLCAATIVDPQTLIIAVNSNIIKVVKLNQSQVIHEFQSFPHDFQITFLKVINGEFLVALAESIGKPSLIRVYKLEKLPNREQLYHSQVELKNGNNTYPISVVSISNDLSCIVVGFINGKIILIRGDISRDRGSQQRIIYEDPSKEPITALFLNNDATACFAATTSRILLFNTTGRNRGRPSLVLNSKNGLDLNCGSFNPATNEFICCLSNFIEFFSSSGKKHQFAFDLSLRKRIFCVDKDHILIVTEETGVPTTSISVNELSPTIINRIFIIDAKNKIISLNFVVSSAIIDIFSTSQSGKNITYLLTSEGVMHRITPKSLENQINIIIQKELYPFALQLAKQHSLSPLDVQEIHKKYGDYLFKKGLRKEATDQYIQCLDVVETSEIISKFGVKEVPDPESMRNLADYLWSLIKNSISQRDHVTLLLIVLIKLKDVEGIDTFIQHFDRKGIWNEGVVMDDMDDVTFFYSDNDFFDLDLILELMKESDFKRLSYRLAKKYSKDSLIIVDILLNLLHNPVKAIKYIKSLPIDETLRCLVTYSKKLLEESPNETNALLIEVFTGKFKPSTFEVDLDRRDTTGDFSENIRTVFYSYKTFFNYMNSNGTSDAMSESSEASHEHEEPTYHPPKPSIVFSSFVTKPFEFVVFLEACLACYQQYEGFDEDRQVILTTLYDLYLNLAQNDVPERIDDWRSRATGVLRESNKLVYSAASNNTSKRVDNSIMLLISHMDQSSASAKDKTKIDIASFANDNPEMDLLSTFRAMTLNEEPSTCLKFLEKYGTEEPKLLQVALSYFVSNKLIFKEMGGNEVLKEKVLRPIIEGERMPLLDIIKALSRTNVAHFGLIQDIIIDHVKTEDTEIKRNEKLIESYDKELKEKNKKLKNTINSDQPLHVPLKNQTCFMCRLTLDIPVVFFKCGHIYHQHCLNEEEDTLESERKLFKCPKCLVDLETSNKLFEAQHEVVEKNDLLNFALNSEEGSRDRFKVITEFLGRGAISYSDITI

What all share (assay): co-IP; small-scale TAP purification: C-terminally TAP-tagged Vps8 or Vps3 (full-length or truncated) captured from yeast lysate (50 mM HEPES/KOH pH 7.4, 300 mM NaCl, 0.15% NP-40, 2 mM MgCl2, 1 mM DTT) on IgG beads, 1.5 h at 4°C; eluted with glycine pH 2.5 or TEV protease; Western blot with anti-Cbp, anti-HA, anti-Vps11; also with overproduced Vps8ΔN and from vps21Δ and vps21Δ ypt52Δ ypt53Δ ypt7Δ strains
(In general: A western blot detects proteins with antibodies after separation by electrophoresis.)

Test [1] deals with T1, Vps8ΔC-TAP (N-terminal domain of Vps8, up to residue 450, C-terminal TAP tag) (yeast (genomic locus of BY4733 strains)) (UniProt P39702).
T1 sequence: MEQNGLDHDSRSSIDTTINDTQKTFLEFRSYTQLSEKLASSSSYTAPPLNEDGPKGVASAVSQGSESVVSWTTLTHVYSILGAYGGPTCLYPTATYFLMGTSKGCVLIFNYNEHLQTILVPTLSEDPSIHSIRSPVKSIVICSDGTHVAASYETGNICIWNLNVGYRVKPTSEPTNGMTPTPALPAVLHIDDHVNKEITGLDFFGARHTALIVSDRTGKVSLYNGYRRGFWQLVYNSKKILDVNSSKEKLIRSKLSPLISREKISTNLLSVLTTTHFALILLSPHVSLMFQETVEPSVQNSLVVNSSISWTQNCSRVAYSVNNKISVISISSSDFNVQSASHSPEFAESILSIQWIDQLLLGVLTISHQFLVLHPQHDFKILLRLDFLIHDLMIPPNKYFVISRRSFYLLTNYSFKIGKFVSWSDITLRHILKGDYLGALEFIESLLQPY

The target of test [2] is T2, Vps3ΔN-TAP (C-terminal domain of Vps3, from residue 427, C-terminal TAP tag) (yeast (genomic locus of BY4741/BY4733 strains)) (UniProt P23643).
T2 sequence: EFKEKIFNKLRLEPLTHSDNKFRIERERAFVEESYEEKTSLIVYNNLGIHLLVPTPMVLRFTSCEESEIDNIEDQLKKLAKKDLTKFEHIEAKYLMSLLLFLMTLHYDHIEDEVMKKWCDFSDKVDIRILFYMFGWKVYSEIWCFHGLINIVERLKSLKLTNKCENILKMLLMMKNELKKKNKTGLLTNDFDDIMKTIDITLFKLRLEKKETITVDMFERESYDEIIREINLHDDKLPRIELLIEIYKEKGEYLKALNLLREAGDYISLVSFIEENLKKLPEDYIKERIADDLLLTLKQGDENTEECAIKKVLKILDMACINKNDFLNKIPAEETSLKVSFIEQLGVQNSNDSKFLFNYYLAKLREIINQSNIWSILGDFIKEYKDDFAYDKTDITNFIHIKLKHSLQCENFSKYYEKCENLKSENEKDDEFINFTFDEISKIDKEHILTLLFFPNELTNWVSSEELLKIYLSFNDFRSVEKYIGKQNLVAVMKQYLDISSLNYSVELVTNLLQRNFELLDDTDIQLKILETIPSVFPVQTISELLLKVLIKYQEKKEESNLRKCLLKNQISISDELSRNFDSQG

The target of test [3] is T3, Vps3-TAP (full-length Vps3, C-terminal TAP tag) (yeast (genomic locus of BY4741/BY4733 strains)) (UniProt P23643).
T3 sequence: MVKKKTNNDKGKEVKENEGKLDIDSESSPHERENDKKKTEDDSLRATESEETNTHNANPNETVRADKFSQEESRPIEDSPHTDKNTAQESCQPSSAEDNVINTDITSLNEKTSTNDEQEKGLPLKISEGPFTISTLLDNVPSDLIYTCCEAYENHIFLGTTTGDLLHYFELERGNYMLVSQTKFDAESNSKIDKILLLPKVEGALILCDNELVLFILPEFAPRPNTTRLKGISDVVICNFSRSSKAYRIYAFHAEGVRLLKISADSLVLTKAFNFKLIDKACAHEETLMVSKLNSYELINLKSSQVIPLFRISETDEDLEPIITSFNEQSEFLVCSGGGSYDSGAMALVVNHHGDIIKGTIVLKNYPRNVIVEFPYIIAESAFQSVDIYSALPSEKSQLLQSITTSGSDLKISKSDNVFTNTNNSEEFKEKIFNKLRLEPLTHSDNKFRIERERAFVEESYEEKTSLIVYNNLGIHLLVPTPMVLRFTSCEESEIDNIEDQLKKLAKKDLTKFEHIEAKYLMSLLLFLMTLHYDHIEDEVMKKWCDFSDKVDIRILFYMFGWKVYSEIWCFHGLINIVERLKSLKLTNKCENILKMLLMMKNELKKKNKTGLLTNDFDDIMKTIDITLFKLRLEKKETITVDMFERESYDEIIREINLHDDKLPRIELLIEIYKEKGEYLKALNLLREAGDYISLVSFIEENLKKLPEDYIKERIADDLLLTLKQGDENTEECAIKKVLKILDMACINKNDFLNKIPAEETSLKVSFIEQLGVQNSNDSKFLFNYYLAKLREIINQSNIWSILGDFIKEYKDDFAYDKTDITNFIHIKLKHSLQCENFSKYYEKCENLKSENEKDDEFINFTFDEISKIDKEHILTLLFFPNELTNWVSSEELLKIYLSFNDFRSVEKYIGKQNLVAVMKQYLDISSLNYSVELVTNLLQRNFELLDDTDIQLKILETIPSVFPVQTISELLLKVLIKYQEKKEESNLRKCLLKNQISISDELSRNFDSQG

No constants are given. Whether binding was seen depends on the method and setting. Binding seen in cells or lysates may run through a third protein. Some binding calls cover weakened binding; strength is not graded here. Sequences can lack the tags named with a protein.

Turning to Vps11 (from UniProt P12868 1-1029), the binding result in test [1] is “no binding”; in test [2], “binds”; in test [3], “binds”.
